Data reported in the supplement of paper PMC10126150.
Values marked as one replicate rest on one cluster of the flow cell; about a third of the high ones do not repeat.

tested on: ATP; assay: switch fluorescence ratio, 500 uM ATP over buffer (Cy3 cluster intensity, sum of 5 cycles each) (fold (ratio)); higher = stronger signal-on switching upon ATP binding; sequences stand for … in TCGTCGGCAGCGTCAGATGTGTATAAGAGACAGTTTTTTTTTTTTTTTTTTTTTTTTT…TC; settings: aptamer strand: ATP DNA aptamer (quencher-CACCTGGGGGAGTATTGCGGAGGAAGG + anchor), 100 nM annealed; ATP concentration: 500 uM; one replicate
Method in brief: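 The fluorescence ratio divides summed target-cycle Cy3 intensity by summed buffer-cycle Cy3 intensity for each cluster and is averaged per switch-domain sequence. Cy3-labelled switching-strand clusters on a modified Illumina MiSeq flow-cell were annealed to 100 nM quencher-labelled ATP aptamer, then imaged in selection buffer and again after 15 min with 500 uM ATP at 22 °C. Five such cycles were run, with NaOH stripping and re-annealing between them, and clusters outside 100-1000 RFU were excluded.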
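Further: ATP exposure 15 min at 22 °C before imaging.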

| Sequence | switch fluorescence ratio |
| --- | --- |
| GGTGTTTCCG | 0.958 |
| GGTGTTTGGT | 0.99 |
| GGTTAAAACG | 1.11 |
| GGTTAAACCA | 0.995 |
| GGTTAACTGA | 1.02 |
| GGTTAAGGAC | 0.991 |
| GGTTACAGTG | 0.969 |
| GGTTACATAG | 1.02 |
| GGTTACGTTG | 0.988 |
| GGTTACTGGG | 0.997 |
| GGTTAGAGCA | 1.01 |
| GGTTATCTCG | 1.01 |
| GGTTATGA | 0.977 |
| GGTTCGAGTA | 1.01 |
| GGTTCGCGCA | 0.988 |
| GGTTGCAGGC | 1.01 |
| GGTTGCCCTC | 0.987 |
| GGTTGGTAGC | 1.04 |
| GGTTGGTAGT | 0.957 |
| GGTTGGTGGA | 0.935 |
| GGTTGGTTCA | 1.04 |
| GGTTGTGGCC | 0.979 |
| GGTTTACAG | 1.06 |
| GGTTTAGAAA | 1.01 |
| GGTTTAGCGT | 0.972 |
| GGTTTATGAT | 0.989 |

| Sequence | switch fluorescence ratio |
| --- | --- |
| GGTTTATTA | 1.02 |
| GGTTTCCTAA | 0.986 |
| GGTTTCTAAC | 0.96 |
| GGTTTGCGAG | 0.972 |
| GGTTTGCTT | 0.946 |
| GGTTTGTCTG | 0.912 |
| GGTTTTAGAG | 0.964 |
| GGTTTTCG | 1.01 |
| GTAAAAAGTA | 0.992 |
| GTAAAAGCG | 1.03 |
| GTAAATAATT | 1 |
| GTAAATTTGG | 1 |
| GTAACAAGAA | 1.01 |
| GTAACATGTT | 0.983 |
| GTAACGCGAG | 1.01 |
| GTAACGGAAA | 0.96 |
| GTAACGTATC | 1.13 |
| GTAAGCTGTG | 1 |
| GTAAGTGCGC | 0.994 |
| GTAATACAGA | 1.04 |
| GTAATATATC | 1.04 |
| GTAATGCCGG | 1.06 |
| GTAATGCCTT | 1 |
| GTAATGGAAA | 1.02 |
| GTAATGTACA | 0.998 |
| GTAATGTATT | 1.03 |

| Sequence | switch fluorescence ratio |
| --- | --- |
| GTAATTACAG | 1.01 |
| GTAATTATAC | 1.08 |
| GTAATTCGAG | 1.02 |
| GTACCTCTGC | 1.47 |
| GTACGCAACG | 1.23 |
| GTACGGACGT | 1.08 |
| GTACGTTTTG | 0.974 |
| GTACTCAACC | 1.22 |
| GTACTGGTCA | 0.957 |
| GTAGAAGCCA | 0.97 |
| GTAGAGCCAG | 0.983 |
| GTAGATTTTC | 0.984 |
| GTAGCAGCA | 1.14 |
| GTAGCCCTGA | 1.04 |
| GTAGCCCTGG | 1.05 |
| GTAGCCCTTT | 0.995 |
| GTAGCCGGAG | 0.928 |
| GTAGCGATG | 1.38 |
| GTAGCGCACA | 0.999 |
| GTAGCGGCTT | 0.99 |
| GTAGCGTTGG | 1.05 |
| GTAGCTTTAT | 1.23 |
| GTAGGAGACT | 0.958 |
| GTAGGATTGA | 0.97 |
| GTAGGCGCGT | 0.987 |
| GTAGGGAACT | 0.978 |

| Sequence | switch fluorescence ratio |
| --- | --- |
| GTAGGGATAC | 3.32 |
| GTAGGGGA | 1.1 |
| GTAGGGGATG | 0.995 |
| GTAGGGGTTA | 0.987 |
| GTAGGTTCGC | 0.999 |
| GTAGTAAAGC | 1.18 |
| GTAGTACCAG | 0.99 |
| GTAGTACCTT | 1.08 |
| GTAGTGC | 1.07 |
| GTAGTGGGTT | 0.996 |
| GTAGTTCAGT | 0.985 |
| GTAGTTTAA | 0.992 |
| GTATAAACTT | 1.09 |
| GTATAATCTG | 1.02 |
| GTATAATTGG | 0.975 |
| GTATATACTT | 1.03 |
| GTATCAGATT | 1.02 |
| GTATCATGAG | 0.994 |
| GTATCCGTG | 1.05 |
| GTATCGGGGT | 0.966 |
| GTATCTCATT | 1.02 |
| GTATGAACT | 0.984 |
| GTATGAAGTA | 0.99 |
